From PubChem BioAssay AID652104 (National Center for Advancing Translational Sciences (NCATS), 2013)
Hit rate of the full screen: of about 410,000 compounds, about 7,200 (1.8%) were called active. Inconclusive results, whose numbers are uncertain, are shown with a selection of clear calls. Calls come from the whole dose curve; as a rule, active = well fitted activation curve with a large enough effect; inconclusive = small, poorly fitted or top-dose-only effect, or another doubt; inactive = no such curve, though single readings can be large or run the other way. Potencies of inconclusive entries are doubtful fits and often do not repeat.

Assay: qHTS of TDP-43 Inhibitors; note: nearly all actives have a fitted effect of over 50% in size; for growth rescue (activation): % of control where 0% means no effect
Conditions: TDP-43 expressing yeast growth rescue, BacTiter-Glo, 24 h; growth rescue (activation): at 46.1 µM (top of the series) unless noted
In short: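 Growth rescue of TDP-43-toxic yeast measured as ATP luminescence (BacTiter-Glo). Cells grown to mid-log in raffinose, induced in galactose at OD600=0.02, exposed to compound 24 hr at 30 deg C.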
Potency is the fitted concentration of half-maximal effect; tags give direction and shape of the fitted curve.

Potency, inconclusive:
CCOC(=O)CNC(=O)c1ccc2[nH]c3ccccc3c2c1 22.4 µM [activator, partial curve]
Cc1csc(=O)n1CCC(=O)OCc1nnc(-c2ccccc2Cl)o1 10 µM [activator, partial curve, poor fit]
C=Cc1ccc(Cn2c(=O)cc(C)c3c(C)nn(C)c32)cc1 12.6 µM [activator, partial curve]
Cc1cccc(N2CCN(c3c4c(nc5nncn35)CCC4)CC2)c1C 7.08 µM [activator, partial curve, poor fit]
CNC(=S)NNC(=O)c1cccn(Cc2cccc(Cl)c2)c1=O 31.6 µM [activator, single point]
O=C(O)c1ccccc1C(=O)Nc1ccc(Nc2ccc([N+](=O)[O-])cc2[N+](=O)[O-])cc1 20 µM [activator, single point]
COc1ccc(Nc2cc(C(=O)NCc3ccccc3)c3ccccc3n2)cc1OC 8.91 µM [activator, full curve, poor fit]
Cn1cccc1-c1nc2ccc([N+](=O)[O-])cc2[nH]1 31.6 µM [activator, single point]
CCOC(=O)C1CCCN(C(=O)c2cnn3c(C(F)F)cc(-c4ccc(C)cc4)nc23)C1 (configuration not stated) 25.1 µM [activator, partial curve]
COc1ccccc1Cc1nc2ccccc2nc1SCC(=O)N1CCC(C)CC1 17.8 µM [activator, partial curve]
C=CCn1cnc2c(nnn2-c2ccc(Cl)cc2)c1=O 12.6 µM [activator, single point]
CCCC[n+]1c2ccccc2cc2ccccc21 15.8 µM [activator, partial curve]
O=C(Cc1ccccc1[N+](=O)[O-])N1CCc2ccccc2C1 35.5 µM [activator, single point]
COc1ccc2c(c1)C1=C(CC2)C(c2ccc(C)cc2)NC(=S)N1 (configuration not stated) 8.91 µM [activator, partial curve]
COc1ccccc1-c1c(C(F)(F)F)oc2c(CN3CCCCC3C)c(O)ccc2c1=O (configuration not stated) 0.891 µM [activator, full curve, poor fit]
Cc1cccc(-c2nc(-c3ccc4c(c3)[nH]c(=O)n4C)no2)c1 0.355 µM [activator, full curve, poor fit]
COc1ccc(CNC(=O)CSc2nc(C)cs2)cc1 22.4 µM [activator, partial curve, poor fit]
COC(=O)c1ccc(NC(=O)C(=O)N2CCN(C(=S)NCCc3ccccc3)CC2)cc1 22.4 µM [activator, single point]
Nc1ccc(C(=O)O)cc1 1.41 µM [activator, partial curve]
COc1ccc(NC(=O)CN(C)C(=O)c2cn(-c3ccccc3)nc2-c2ccc(Cl)cc2)cc1 20 µM [activator, single point]
O=C(c1cnn(C(=O)c2ccco2)c1)c1ccccc1O 31.6 µM [activator, single point]
CCOC(=O)c1cnn2c(C)cc(-c3ccccc3)nc12 14.1 µM [activator, single point]
Nc1cc(Cl)ccc1C(=O)OCC(=O)NCc1cccs1 8.91 µM [activator, partial curve]
O=S(=O)(Nc1ccc2nc(N3CCOCC3)sc2c1)c1ccc(Cl)cc1 11.2 µM [activator, partial curve]
CN(Cc1ccc(C(C)(C)C)cc1)C(=O)c1ccc2c(=O)n3c(nc2c1)CCC3 10 µM [activator, partial curve]
CCOC(=O)c1[nH]c2ccc(OC)cc2c1NC(=O)c1cccc(OC)c1 35.5 µM [activator, single point]
Cc1nc2scc(C)n2c(=O)c1S(=O)(=O)Nc1ccc(N2CCN(C(=O)C(C)C)CC2)cc1 0.891 µM [activator, full curve, poor fit]
C=CCSc1nc(C)cc(C(=O)OCC)c1C#N 2.82 µM [activator, full curve]
O=C(Nc1ncc2c(n1)-c1ccccc1OC2)c1ccc(Cl)cc1 2 µM [activator, full curve]
O=C(Nc1cc(Cl)c(Cl)cc1Cl)c1cccnc1 7.08 µM [activator, partial curve]
Cn1c(SCCc2ccc([N+](=O)[O-])cc2)nccc1=O 14.1 µM [activator, single point]
Cc1ccc(C(=O)NCCSc2c(C)[nH]c3ccccc23)cc1C 35.5 µM [activator, partial curve]
COc1ccc(-c2nnc(SCC#N)o2)cc1 10 µM [activator, partial curve]
O=C(COc1ccccc1[N+](=O)[O-])Nc1cccc(Cl)c1N1CCOCC1 14.1 µM [activator, single point]
Cc1ccc2nc(NC(=O)c3ccc4ncsc4c3)sc2c1 6.31 µM [activator, partial curve]
CC(C)S(=O)(=O)N1CCCC(c2cc(C(=O)Nc3ccc(F)c(Cl)c3)no2)C1 (configuration not stated) 35.5 µM [activator, single point]
Cc1ccc(C2CC(c3cccs3)=NN2C(=O)CSc2nc(=O)n3cc(C)ccc3n2)cc1 (configuration not stated) 12.6 µM [activator, partial curve]
COc1ccc(O)c(/C=N/Nc2nc(C)cc(-c3ccccc3)n2)c1 20 µM [activator, single point]
Cc1ccc(CCNC(=O)c2sc3nc4n(c(=O)c3c2C)CCC4)cc1 28.2 µM [activator, single point]
CC(=O)N(C(C)=O)C1=C(C#N)C2(CCCCC2)Cc2ccccc21 35.5 µM [activator, single point]
COc1ccc(C(=O)c2ccc(Cl)c([N+](=O)[O-])c2)cc1 20 µM [activator, single point]
COc1c(C)c2c(c(O)c1C/C=C(\C)CCC(=O)O)C(=O)OC2 35.5 µM [activator, single point]
COc1ccc(/C=C2\C(=O)ON=C2c2ccccc2)cc1OC 17.8 µM [activator, single point]

Potency, active:
CCOC(=O)N1CCN(c2c(-c3ccc(C(C)C)cc3)c(=O)c2=O)CC1 20 µM
O=C(Nc1ccc2c(c1)C(=O)N(c1ccccc1)C2=O)C1CCCO1 (configuration not stated) 12.6 µM
Nc1ccccc1SCC(O)Cn1ccc2ccccc21 (configuration not stated) 17.8 µM
CCCCOc1cccc(C(=O)NC(=S)Nc2cccnc2)c1 25.1 µM
COc1ccccc1C(=O)Nc1cccc2cccnc12 3.16 µM
Nc1cccc(Oc2c(F)c(F)c(Oc3cccc(N)c3)c(F)c2F)c1 5.62 µM
Cc1nc(S(=O)(=O)N2CCOCC2)c(C#N)c(C)c1Cl 12.6 µM
CC1CC(C)CN(C(=O)c2ccc(-c3ccc([N+](=O)[O-])cc3)o2)C1 (configuration not stated) 14.1 µM
Cc1ccc(CSC2=Nc3ccccc3C3=NC(CCC(=O)NCCc4ccccc4)C(=O)N23)cc1 (configuration not stated) 31.6 µM
O=C(O)C1C2C=CC(C2)C1C(=O)NCc1ccc(Cl)c(Cl)c1 (configuration not stated) 20 µM

Potency, inactive:
CCS(=O)(=O)N1CCN(c2ccc([N+](=O)[O-])c(NC(C)c3ccccc3)c2)CC1 (configuration not stated)
CCCNc1nc(N)nc(-c2cc(Cl)ccc2OC)n1
CSc1nnc(-c2ccccc2)o1
CCOc1ccc(C(=O)NCc2ccc3c(c2)CCN3C(=O)c2ccc(C)cc2)cc1OCC
Cc1ccn2c(Nc3ccc4c(c3)OCCO4)c(-c3ccc(C)s3)nc2c1
CCc1cc(=O)oc2cc(C)c3c(-c4ccc(F)cc4)coc3c12
Cc1cccc(NC(=O)CSc2nc3c(oc4ccccc43)c(=O)n2-c2ccccc2)c1C
Cc1ccc(C(=O)CN2C(=O)NC3(CCCCC3C)C2=O)s1 (configuration not stated)
COc1cc(CNC(=O)C2CC(O)CN2C(=O)Nc2ccccc2)cc(OC)c1OC (configuration not stated)
Cc1ccc(OCCSc2nc(-c3cccs3)nc3cc(=O)[nH]n23)cc1Cl
CCCOc1ccc(CC(=O)NCC2(c3ccccc3)CCOCC2)cc1OC
Cc1ccc(NC(=O)CSc2nc3c(c(=O)[nH]2)CN(Cc2ccccc2)CC3)cc1Cl
CCN(CC)c1ccc(NC(=O)COC(=O)/C=C/c2nc3ccccc3s2)cc1
O=C(O)C1CCCCC1C(=O)NCCc1c[nH]c2ccccc12 (configuration not stated)
Cc1ccc(N(CC(=O)NC2CCCC2)C(=O)CCC(=O)Nc2ccccn2)cc1C
O=C(Nc1cccc(-c2nnc(-c3ccco3)o2)c1)C(c1ccccc1)c1ccccc1
O=C(O)c1ccc(CSc2nnc(-c3ccccc3)n2-c2ccccc2)cc1
NS(=O)(=O)c1ccc(NC(=O)c2ccc(CSc3ccccc3)o2)cc1

Growth rescue (activation), inconclusive:
Cc1cccc(C)c1NC(=O)COC(=O)c1ccc([N+](=O)[O-])o1 -79.9% [activator]
